Results published in PMC5700166.
This is a selection; strong and weak results do not stand in their true shares. The list includes weakly bound sequences.

Target: T1, GST-Co-NF-kB (UniProt F1ARL5)
T1 sequence: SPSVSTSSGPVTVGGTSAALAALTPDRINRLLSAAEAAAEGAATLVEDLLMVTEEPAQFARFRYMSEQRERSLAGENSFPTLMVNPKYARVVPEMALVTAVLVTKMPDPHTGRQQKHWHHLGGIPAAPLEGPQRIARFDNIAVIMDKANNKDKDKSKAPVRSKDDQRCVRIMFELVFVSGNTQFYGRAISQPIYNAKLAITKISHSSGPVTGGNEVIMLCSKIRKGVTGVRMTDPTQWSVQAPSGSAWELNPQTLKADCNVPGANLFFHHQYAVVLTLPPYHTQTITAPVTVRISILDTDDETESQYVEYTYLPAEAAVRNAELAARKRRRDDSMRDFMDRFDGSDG
Assay: protein-binding microarray (PBM)
Conditions: PBM: ~300 nM protein, 6 mM HEPES pH 7.8, 80 mM KCl, 0.5 mM EDTA, 0.5 mM EGTA, 6% glycerol, 35 ng/ul poly-dIdC, 1% milk, 1 h, room temperature; Ap Aiptasia and Nv Nematostella (sea anemones) / Co Capsaspora / Aq Amphimedon (sponge) / Dm Drosophila / Hu human; RHD is the Rel homology domain; high values mean tight binding; most listed sequences are background and not binding sites; double strand, one strand shown

Sequence	binding signal [z-score]
CCGATTAACATCAGGGGATACCCTGATGTTAATCGGGTCTTGATTCGCTTGACGCTGCTG	3.74
CCGATTAACATCAGGGGTTTAACTGATGTTAATCGGGTCTTGATTCGCTTGACGCTGCTG	0.864
CCGATTAACATCAGATTCTCCCCTGATGTTAATCGGGTCTTGATTCGCTTGACGCTGCTG	6.76
CCGATTAACATCAGGGATATTTATGATGTTAATCGGGTCTTGATTCGCTTGACGCTGCTG	1.68
CCGATTAACATCAGGGGATCCACTGATGTTAATCGGGTCTTGATTCGCTTGACGCTGCTG	2.76
CCGATTAACATCAGACCTTCCCCTGATGTTAATCGGGTCTTGATTCGCTTGACGCTGCTG	4.12
CCGATTAACATCACCAAACCCCCTGATGTTAATCGGGTCTTGATTCGCTTGACGCTGCTG	2.03
CCGATTAACATCAAAGTTTCCCCTGATGTTAATCGGGTCTTGATTCGCTTGACGCTGCTG	10.6
CCGATTAACATCAGAGAAGCCCCTGATGTTAATCGGGTCTTGATTCGCTTGACGCTGCTG	0.0981
CCGATTAACATCACATATCCCCCTGATGTTAATCGGGTCTTGATTCGCTTGACGCTGCTG	5.73
CCGATTAACATCAAGGGGGTCCCTGATGTTAATCGGGTCTTGATTCGCTTGACGCTGCTG	0.797
CCGATTAACATCATTAGGGTATTTGATGTTAATCGGGTCTTGATTCGCTTGACGCTGCTG	0.747
CCGATTAACATCACAGAATCCCCTGATGTTAATCGGGTCTTGATTCGCTTGACGCTGCTG	3.42
CCGATTAACATCAAAATACCCCCTGATGTTAATCGGGTCTTGATTCGCTTGACGCTGCTG	7.21
CCGATTAACATCAGGGGGAATTATGATGTTAATCGGGTCTTGATTCGCTTGACGCTGCTG	9.25
CCGATTAACATCACCGGGAATTCTGATGTTAATCGGGTCTTGATTCGCTTGACGCTGCTG	5.5
CCGATTAACATCAGGGGGCACCCTGATGTTAATCGGGTCTTGATTCGCTTGACGCTGCTG	2.17
CCGATTAACATCAGGGAGTTTACTGATGTTAATCGGGTCTTGATTCGCTTGACGCTGCTG	1.37
CCGATTAACATCAAGGGACTTCCTGATGTTAATCGGGTCTTGATTCGCTTGACGCTGCTG	1.07
CCGATTAACATCAACACCCCCCCTGATGTTAATCGGGTCTTGATTCGCTTGACGCTGCTG	5.33

Sequence	binding signal [z-score]
CCGATTAACATCAAATATACCCCTGATGTTAATCGGGTCTTGATTCGCTTGACGCTGCTG	5.87
CCGATTAACATCAGAACACCCCCTGATGTTAATCGGGTCTTGATTCGCTTGACGCTGCTG	3.33
CCGATTAACATCAAGGGAAGCCCTGATGTTAATCGGGTCTTGATTCGCTTGACGCTGCTG	0.502
CCGATTAACATCAGGGGGAAAAATGATGTTAATCGGGTCTTGATTCGCTTGACGCTGCTG	11.6
CCGATTAACATCAATGCCCCCCCTGATGTTAATCGGGTCTTGATTCGCTTGACGCTGCTG	5.03
CCGATTAACATCAGATTCCCCCCTGATGTTAATCGGGTCTTGATTCGCTTGACGCTGCTG	10
CCGATTAACATCAGGCATCCCCCTGATGTTAATCGGGTCTTGATTCGCTTGACGCTGCTG	3.74
CCGATTAACATCAGGGAATTCGATGATGTTAATCGGGTCTTGATTCGCTTGACGCTGCTG	2.25
CCGATTAACATCAACCAATCCCCTGATGTTAATCGGGTCTTGATTCGCTTGACGCTGCTG	2.16
CCGATTAACATCAAGGGGGGAGATGATGTTAATCGGGTCTTGATTCGCTTGACGCTGCTG	6.56
CCGATTAACATCAAAAAACCACCTGATGTTAATCGGGTCTTGATTCGCTTGACGCTGCTG	1.37
CCGATTAACATCAGGATAATCCCTGATGTTAATCGGGTCTTGATTCGCTTGACGCTGCTG	1.51
CCGATTAACATCAGGACCTTCCCTGATGTTAATCGGGTCTTGATTCGCTTGACGCTGCTG	0.163
CCGATTAACATCAGAGTTTTCCCTGATGTTAATCGGGTCTTGATTCGCTTGACGCTGCTG	4.75
CCGATTAACATCAGGCATTCCCATGATGTTAATCGGGTCTTGATTCGCTTGACGCTGCTG	1.54
CCGATTAACATCACGGAAAACCCTGATGTTAATCGGGTCTTGATTCGCTTGACGCTGCTG	0.353
CCGATTAACATCAGGGGACACCCTGATGTTAATCGGGTCTTGATTCGCTTGACGCTGCTG	3.91
CCGATTAACATCACATTTTCCCCTGATGTTAATCGGGTCTTGATTCGCTTGACGCTGCTG	9.7
CCGATTAACATCAAGTAAATCCCTGATGTTAATCGGGTCTTGATTCGCTTGACGCTGCTG	1.22
